Experimental data as given in publication PMC6919601, “Identification of Plasmodium dipeptidyl aminopeptidase allosteric inhibitors by high throughput screening” (PLoS ONE, 2019).
Screen size: about 110,000 compounds; about 230 (0.21%) showed an effect of 50% or more. Some of the results follow.

Target: DPAP1 (Plasmodium falciparum, UniProt Q8IIJ9)
Assay: primary screen, percent inhibition; read by cleavage of a fluorogenic dipeptide substrate; higher = more effect of the substance
Parameters: species or system P. falciparum D10 trophozoite lysates; single well
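Also: 30 min substrate incubation versus DMSO and 10 µM JCP410 controls.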

DPAP1, sequence (Q8IIJ9 whole entry, looked up): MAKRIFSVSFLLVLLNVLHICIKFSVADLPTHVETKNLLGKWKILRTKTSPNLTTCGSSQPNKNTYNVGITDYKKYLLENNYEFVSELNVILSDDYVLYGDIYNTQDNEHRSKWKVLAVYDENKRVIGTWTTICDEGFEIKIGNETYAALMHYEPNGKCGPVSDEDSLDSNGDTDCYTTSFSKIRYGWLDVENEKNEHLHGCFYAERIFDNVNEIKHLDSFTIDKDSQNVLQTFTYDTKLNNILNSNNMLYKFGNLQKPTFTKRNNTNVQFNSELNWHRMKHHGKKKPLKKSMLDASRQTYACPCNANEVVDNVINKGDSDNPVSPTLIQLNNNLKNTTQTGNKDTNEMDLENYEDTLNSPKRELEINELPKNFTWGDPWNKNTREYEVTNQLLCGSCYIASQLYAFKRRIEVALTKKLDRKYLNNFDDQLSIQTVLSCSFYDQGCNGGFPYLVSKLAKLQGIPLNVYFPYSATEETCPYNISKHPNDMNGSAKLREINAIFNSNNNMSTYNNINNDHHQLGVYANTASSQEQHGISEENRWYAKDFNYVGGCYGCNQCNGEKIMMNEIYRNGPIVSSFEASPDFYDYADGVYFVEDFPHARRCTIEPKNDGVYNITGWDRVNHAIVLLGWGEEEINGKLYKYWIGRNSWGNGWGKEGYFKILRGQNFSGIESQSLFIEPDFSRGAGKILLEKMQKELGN

Row | SMILES | % Inhibition @ 10 uM
1 | CCOC(=O)N1CCC(NC(=O)c2cccc3c2C(=O)N(CCOC)C3)CC1 | 2.9%
2 | FC(F)(F)c1cccc(OCCNc2nc3ccccc3c3nc(-c4cccnc4)nn23)c1 | 5.49%
3 | CC(C)CCNC(=O)CN1C(=O)CSc2ncccc21 | -7.93%
4 | COc1ccc(C2C(C(C)=O)=C(C)N=c3s/c(=C/c4ccc5c(c4)OCO5)c(=O)n32)cc1 (stereo not shown) | 4.44%
5 | CCC(C)c1ccc(NS(=O)(=O)Cc2ccccc2)cc1 (stereo not shown) | -3.38%
6 | Cc1nc(=O)c(-c2ccccc2)c(C)n1CCO | -3.04%
7 | O=C(C1=C(O)C(=O)N(Cc2cccnc2)C1c1ccc(Cl)cc1)c1ccc(F)cc1 (stereo not shown) | -2.32%
8 | CC(C)(C)c1cc(C(=O)CCCC(=O)O)c(C(C)(C)C)s1 | -4.73%
9 | COCC(C)NC1C2CC3CC(C2)CC1C3 (stereo not shown) | 0.162%
10 | COc1ccc(CCN(C(C)=O)C2CC(=O)N(c3ccc(Cl)cc3)C2=O)cc1 (stereo not shown) | -3.05%
11 | COc1ccc(C(=O)Nc2ccc(Br)cc2)c(OC)c1 | -0.116%
12 | Cc1cc(C)c(CN2CCCN(Cc3ccc(Cl)cc3)S2(=O)=O)c(C)c1 | -7.08%
13 | Cn1c(=O)[nH]c2sc3c(c2c1=O)CC(C)(C)OC3 | -1.66%
14 | CC(C)c1ccc(NC(=O)c2cnccn2)cc1 | 1.8%
15 | CC(C)Cc1ccc(C(C)C(=O)Nc2cccnc2)cc1 (stereo not shown) | -1.63%
16 | CC(C)C[C@H](NC(=O)c1ccccc1F)C(=O)NCC#N | -1.41%
17 | CCCCn1c(O)cc(=O)nc1SCC(=O)N1CCCCC1 | 0.658%
18 | NC(=S)N/N=C/C=C/c1cccs1 | 21.9%
19 | O=C(NCc1ccccc1)N1CCN(c2nc3ccccc3s2)CC1 | -2.28%
20 | O=C(COc1ccccc1)N1N=C(c2ccncc2)CC1(O)C(F)(F)F (stereo not shown) | 0.859%
21 | O=C1C(Cl)=C(N2CCOCC2)C(=O)N1c1cc(Cl)ccc1Cl | 3.46%
22 | O=C(O)C1=C2C(=O)Nc3cccc(c32)C2(C1)C(=O)Nc1ccccc12 (stereo not shown) | -4.06%
23 | CC1=C(C(=O)OCCc2ccccc2)C(c2cccc(C(F)(F)F)c2)NC(=O)N1C (stereo not shown) | -0.467%
24 | Cc1nc(-c2cn[nH]c2)c2cc(C)oc2n1 | -0.424%
25 | O=C(Nc1cccc(C(F)(F)F)c1)NC1CCCCC1 | -2.12%
26 | COc1cc(Br)c(/C=C2\S/C(=N/c3cccc(C(=O)O)c3)N(C)C2=O)cc1OC | -0.185%

Row | SMILES | % Inhibition @ 10 uM
27 | CCOC(=O)c1nnn(-c2nonc2N)c1CN1CCOCC1 | 10.6%
28 | CC(=O)Nc1nc2cc3sc(NC(C)=O)nc3cc2s1 | 13.5%
29 | COc1ccc(C(=O)Nc2nc(C)c(C)s2)cc1OC | -4.59%
30 | Cc1ccc(-c2nnc(S)n2-c2ccccc2)cc1 | 10.5%
31 | O=C1C(Cl)=C/C(=N/S(=O)(=O)c2cccs2)c2ccccc21 | 6.64%
32 | Cc1cccc(OCC(=O)NCc2ccccn2)c1C | 2.86%
33 | CCOc1ccc(CNc2nc3ccc(C)cc3n3nnnc23)cc1OC | 0.796%
34 | CCc1ccc(C2=CC(c3ccccc3Cl)n3nnnc3N2)cc1 (stereo not shown) | 1.73%
35 | COCc1nc2ccccc2n1CCCOc1cc(C)ccc1C(C)C | -4.07%
36 | O=C1/C(=C\c2ccccc2)N2CCC1CC2 | 2%
37 | O=C1C2C3C=CC(C3)C2C(=O)N1c1cc(Cl)ccc1Cl (stereo not shown) | -0.318%
38 | CCC(C)NC(=O)CNC(=S)N1CC2CC(C1)c1cccc(=O)n1C2 (stereo not shown) | -2.26%
39 | CCOc1ccc(CCNC(=O)CN(C)c2nn3c(=O)cc(C)nc3s2)cc1 | -0.281%
40 | CCCSc1ncc(Cl)c(C(=O)Nc2sc3c(c2C(=O)OCC)CCC3)n1 | -2.21%
41 | NC(=O)C1(N2CCCCC2)CCN(S(=O)(=O)c2ccc(Br)cc2)CC1 | 0.569%
42 | Cc1[nH]nc(N2C(=O)c3c(Cl)c(Cl)c(Cl)c(Cl)c3C2=O)c1Br | 1.3%
43 | CCNC(=O)c1c(NC(=O)c2nc(S(C)(=O)=O)ncc2Cl)sc2c1CCCC2 | 2.19%
44 | Cc1ccc2c(CNCc3ccccc3C)c(C(=O)O)n(Cc3ccccc3C)c2c1 | 4.96%
45 | COc1cccc(-c2nc(-c3cc4ccccc4nc3O)no2)c1 | 4.96%
46 | COc1ccc(C)cc1NC(=O)COc1ccccc1 | -4.02%
47 | N#Cc1c(-c2ccccc2)cc(C(F)F)nc1S | 76.3%
48 | CC1CCCC(NC(=O)c2cc(S(=O)(=O)N3CCCCC3)c[nH]2)C1C (stereo not shown) | -2.86%
49 | O=c1cccc2n1C[C@H]1C[C@@H]2CN(Cc2ccc(Cl)cc2Cl)C1 | -3.63%
50 | CCCCOc1ccc(C(=O)N(Cc2ccc(Cl)cc2)C2CCS(=O)(=O)C2)cc1 (stereo not shown) | 2.43%
51 | Cc1ccc(NC(=O)c2cccnc2Cl)c(Br)c1 | 0.0504%
52 | CC(C)CC(NC(=O)C1CCC(C)CC1)C(=O)NC1CCN(Cc2ccccc2)CC1 (stereo not shown) | -1.73%
